The text below walks through data of paper PMC12820563, “FoxP3 forms a head-to-head dimer in vivo and stabilizes its multimerization on adjacent microsatellites”.

The list shows a part of the results.

For the assay, the target named is T1, MBP-FoxP1dN (Mus musculus, UniProt P58462 326-579).
T1 sequence: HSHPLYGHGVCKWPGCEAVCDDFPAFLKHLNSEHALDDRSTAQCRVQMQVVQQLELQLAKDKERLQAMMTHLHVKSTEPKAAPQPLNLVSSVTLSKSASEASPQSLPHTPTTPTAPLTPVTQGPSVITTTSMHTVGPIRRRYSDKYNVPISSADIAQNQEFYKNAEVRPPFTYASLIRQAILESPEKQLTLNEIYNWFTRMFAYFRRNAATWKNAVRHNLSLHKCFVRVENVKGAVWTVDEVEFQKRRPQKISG
The assay is described as follows: PD-seq (MBP pull-down with sequencing); 20 mM Tris-HCl pH 7.5, 100 mM NaCl, 1.5 mM MgCl2, 0.4 uM protein, 0.1 uM dsDNA library, 30 min, room temperature, amylose pull-down; high values mean tight binding. The settings on record: protein: recombinant; tags: His6-MBP; chain copies: 2; dsDNA, one strand shown. The method in brief:
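E. coli-expressed mouse FoxP3 or FoxP1 fragment, N-terminus removed and tagged with His6-MBP, was used at 0.4 µM against 0.1 µM of a Klenow-filled degenerate double-stranded DNA library. After 30 min at room temperature in Tris pH 7.5 buffer with NaCl and MgCl2, complexes were pulled down on amylose resin and washed three times. Binding is pull-down over input reads-per-million enrichment from pooled replicates of the proteinase K-released, PCR-barcoded, Illumina-sequenced DNA.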
Regarding “GATGATTGTTCTCCCAGCTGATGAATTGCCTAAATCGAGTAAACAAATTTTCCTAATCTTTCTGTTCAAGCGCCATCTAC”, the binding signal is 1.21 RPM ratio (pull-down/input).
Regarding “GATGATTGTTCTCCCAGCTGATGAATTGTCAATCTCGAGTAAACAAATTTTCCTAATCTTTCTGTTCAAGCGCCATCTAC”, the binding signal was 1.08 RPM ratio (pull-down/input).
For “GATGATTGTTCTCCCAGCTGATGAATTATCCCTTTCGAGTAAACAAATTTTCCTAATCTTTCTGTTCAAGCGCCATCTAC”, the binding signal was 0.962 RPM ratio (pull-down/input).
As to “GATGATTGTTCTCCCAGCTGATGAATTCATTACGTCGAGTAAACAAATTTTCCTAATCTTTCTGTTCAAGCGCCATCTAC”, the binding signal is 1.01 RPM ratio (pull-down/input).
Regarding “GATGATTGTTCTCCCAGCTGATGAATTATTGTTATCGAGTAAACAAATTTTCCTAATCTTTCTGTTCAAGCGCCATCTAC”, the binding signal is 2.83 RPM ratio (pull-down/input).
The value for “GATGATTGTTCTCCCAGCTGATGAATTTGCACCGTCGAGTAAACAAATTTTCCTAATCTTTCTGTTCAAGCGCCATCTAC” was 0.971 RPM ratio (pull-down/input); that for “GATGATTGTTCTCCCAGCTGATGAATTCAGGTATTCGAGTAAACAAATTTTCCTAATCTTTCTGTTCAAGCGCCATCTAC” was 1 RPM ratio (pull-down/input); that for “GATGATTGTTCTCCCAGCTGATGAATTCTGAGGCTCGAGTAAACAAATTTTCCTAATCTTTCTGTTCAAGCGCCATCTAC” was 0.859 RPM ratio (pull-down/input).
Regarding “GATGATTGTTCTCCCAGCTGATGAATTGATCCCCTCGAGTAAACAAATTTTCCTAATCTTTCTGTTCAAGCGCCATCTAC”, the binding signal is 0.821 RPM ratio (pull-down/input).
On to “GATGATTGTTCTCCCAGCTGATGAATTCCGCTGATCGAGTAAACAAATTTTCCTAATCTTTCTGTTCAAGCGCCATCTAC”, for which the binding signal was 0.889 RPM ratio (pull-down/input).
On to “GATGATTGTTCTCCCAGCTGATGAATTCAGGATTTCGAGTAAACAAATTTTCCTAATCTTTCTGTTCAAGCGCCATCTAC”, for which the binding signal was 0.809 RPM ratio (pull-down/input).
Regarding “GATGATTGTTCTCCCAGCTGATGAATTTTGGTCGTCGAGTAAACAAATTTTCCTAATCTTTCTGTTCAAGCGCCATCTAC”, the binding signal was 0.905 RPM ratio (pull-down/input).
As for “GATGATTGTTCTCCCAGCTGATGAATTTGTCACGTCGAGTAAACAAATTTTCCTAATCTTTCTGTTCAAGCGCCATCTAC”, the binding signal was 1.13 RPM ratio (pull-down/input).
On to “GATGATTGTTCTCCCAGCTGATGAATTCTTATGTTCGAGTAAACAAATTTTCCTAATCTTTCTGTTCAAGCGCCATCTAC”, for which the binding signal is 1.21 RPM ratio (pull-down/input).
As for “GATGATTGTTCTCCCAGCTGATGAATTGGCAGGCTCGAGTAAACAAATTTTCCTAATCTTTCTGTTCAAGCGCCATCTAC”, the binding signal was 0.767 RPM ratio (pull-down/input).
Take “GATGATTGTTCTCCCAGCTGATGAATTGGGCTCCTCGAGTAAACAAATTTTCCTAATCTTTCTGTTCAAGCGCCATCTAC”: the binding signal is 0.774 RPM ratio (pull-down/input).
As to “GATGATTGTTCTCCCAGCTGATGAATTAACTGAATCGAGTAAACAAATTTTCCTAATCTTTCTGTTCAAGCGCCATCTAC”, the binding signal is 1.02 RPM ratio (pull-down/input).
As for “GATGATTGTTCTCCCAGCTGATGAATTCCATGCATCGAGTAAACAAATTTTCCTAATCTTTCTGTTCAAGCGCCATCTAC”, the binding signal is 1.07 RPM ratio (pull-down/input).
Regarding “GATGATTGTTCTCCCAGCTGATGAATTCGGCTCCTCGAGTAAACAAATTTTCCTAATCTTTCTGTTCAAGCGCCATCTAC”, the binding signal is 0.747 RPM ratio (pull-down/input).
Turning to “GATGATTGTTCTCCCAGCTGATGAATTTTGACTGTCGAGTAAACAAATTTTCCTAATCTTTCTGTTCAAGCGCCATCTAC”, the binding signal is 0.889 RPM ratio (pull-down/input).
As to “GATGATTGTTCTCCCAGCTGATGAATTCGAGTCATCGAGTAAACAAATTTTCCTAATCTTTCTGTTCAAGCGCCATCTAC”, the binding signal was 0.921 RPM ratio (pull-down/input).
With “GATGATTGTTCTCCCAGCTGATGAATTTACACTTTCGAGTAAACAAATTTTCCTAATCTTTCTGTTCAAGCGCCATCTAC”, the binding signal is 1.45 RPM ratio (pull-down/input).
With “GATGATTGTTCTCCCAGCTGATGAATTCTATTTCTCGAGTAAACAAATTTTCCTAATCTTTCTGTTCAAGCGCCATCTAC” the figure was 0.971 RPM ratio (pull-down/input).
For “GATGATTGTTCTCCCAGCTGATGAATTGCAGTAATCGAGTAAACAAATTTTCCTAATCTTTCTGTTCAAGCGCCATCTAC”, the binding signal was 1.57 RPM ratio (pull-down/input).
Take “GATGATTGTTCTCCCAGCTGATGAATTTCTTCGTTCGAGTAAACAAATTTTCCTAATCTTTCTGTTCAAGCGCCATCTAC”: the binding signal was 0.86 RPM ratio (pull-down/input).
Turning to “GATGATTGTTCTCCCAGCTGATGAATTTCCGCTGTCGAGTAAACAAATTTTCCTAATCTTTCTGTTCAAGCGCCATCTAC”, the binding signal was 0.845 RPM ratio (pull-down/input).
With “GATGATTGTTCTCCCAGCTGATGAATTATCGATGTCGAGTAAACAAATTTTCCTAATCTTTCTGTTCAAGCGCCATCTAC” the figure was 1.15 RPM ratio (pull-down/input).
As for “GATGATTGTTCTCCCAGCTGATGAATTTGATAAGTCGAGTAAACAAATTTTCCTAATCTTTCTGTTCAAGCGCCATCTAC”, the binding signal is 0.939 RPM ratio (pull-down/input).
On to “GATGATTGTTCTCCCAGCTGATGAATTGAGTGCGTCGAGTAAACAAATTTTCCTAATCTTTCTGTTCAAGCGCCATCTAC”, for which the binding signal was 1.05 RPM ratio (pull-down/input).
On to “GATGATTGTTCTCCCAGCTGATGAATTATTGACCTCGAGTAAACAAATTTTCCTAATCTTTCTGTTCAAGCGCCATCTAC”, for which the binding signal was 1.31 RPM ratio (pull-down/input).
“GATGATTGTTCTCCCAGCTGATGAATTCAACTTCTCGAGTAAACAAATTTTCCTAATCTTTCTGTTCAAGCGCCATCTAC”: the binding signal is 0.85 RPM ratio (pull-down/input).
